# Reference: the supplement of paper PMC12582362
# Where a name gives a salt, the structure may show the parent alone. The whole screen tested about 1,500 compounds, of which about 30 (2%) showed activity.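 The calls were made as follows: active = robust z-score below -2; a few such results were not called.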 The list shows a part of the results.
# Test system: optoTopBP1 Flp-In 293 T-REx (HEK293) cells
# Experiment: light-induced TopBP1 condensate (nuclear foci) count, plate-normalised robust z-score vs non-control wells; higher = more TopBP1 condensates (negative = condensation inhibitor), active = hit call of the paper
# Details: 10 µM; incubation time 2 h
row,SMILES,light-induced TopBP1 condensate (z-score)
1,O=C1CCC(N2C(=O)c3ccccc3C2=O)C(=O)N1 (configuration not stated) [Thalidomide],inactive: -0.291
2,O=C1NCCN1CCN1CCC(c2cn(-c3ccc(F)cc3)c3ccc(Cl)cc23)CC1 [Sertindole],inactive: -0.879
3,O=C1[C@@H]2[C@H]3CC[C@H](C3)[C@@H]2C(=O)N1CCCCN1CCN(c2ncccn2)CC1 [Tandospirone],inactive: 0.0494
4,O=C1OC(CN2CCOCC2)CN1/N=C/c1ccc([N+](=O)[O-])o1 (configuration not stated) [Furaltadone hydrochloride],inactive: 0.272
5,Cc1ccsc1C(=CCCN1CCC[C@@H](C(=O)O)C1)c1sccc1C [Tiagabine hydrochloride],inactive: 0.0241
6,O=C(O)CCNC(=O)c1ccc(/N=N/c2ccc(O)c(C(=O)O)c2)cc1 [Balsalazide Sodium],inactive: -0.083
7,Cc1cccc(Nc2ccccc2C(=O)O)c1C [Mefenamic acid],inactive: 1.39
8,CCC(C)n1ncn(-c2ccc(N3CCN(c4ccc(OCC5COC(Cn6cncn6)(c6ccc(Cl)cc6Cl)O5)cc4)CC3)cc2)c1=O (configuration not stated) [Itraconazole],inactive: -0.757
9,CCOc1cc(N)c(Cl)cc1C(=O)NCC1CN(Cc2ccc(F)cc2)CCO1 (configuration not stated) [Mosapride],inactive: 0.646
10,C[n+]1ccccc1/C=N/O [Pralidoxime chloride],inactive: 0.129
11,C[C@H]1[C@H](OC(=O)CCC(=O)O)O[C@@H]2O[C@@]3(C)CC[C@H]4[C@H](C)CC[C@@H]1[C@@]24OO3 [Artesunate],inactive: -0.0235
12,"CC(C)NCC(O)c1cc(O)cc(O)c1 (configuration not stated) [Metaproterenol sulfate, orciprenaline sulfate]",inactive: 1.02
13,CCCCCCCCCCCCCCCCCCCCCC(=O)Nc1ccn([C@@H]2O[C@H](CO)[C@@H](O)[C@@H]2O)c(=O)n1 [Enocitabine],inactive: -0.125
14,CC(C)NCC(O)COc1cccc2[nH]c3ccccc3c12 (configuration not stated) [Carazolol],inactive: -1.07
15,C#CCN(C)CCCOc1ccc(Cl)cc1Cl [Clorgyline hydrochloride],inactive: 0.37
16,O=C(O)CN(CCN(CC(=O)O)CC(=O)O)CCN(CC(=O)O)CC(=O)O [Pentetic acid],inactive: -0.477
17,Cn1c(=O)c2c(ncn2CCO)n(C)c1=O [Etofylline],inactive: 0.502
18,COc1ccccc1N1CCN(CCCNc2cc(=O)n(C)c(=O)n2C)CC1 [Urapidil hydrochloride],inactive: -0.626
19,COc1nc(N)nc2c1ncn2[C@@H]1O[C@H](CO)[C@@H](O)[C@@H]1O [Nelarabine],inactive: 1.01
20,OC[C@H]1O[C@H](O[C@H]2O[C@H](CO)[C@@H](O)[C@H](O)[C@H]2O)[C@H](O)[C@@H](O)[C@@H]1O [Trehalose dihydrate],inactive: -0.24
21,CCC(=O)OCC(=O)[C@@]1(OC(=O)CC)[C@@H](C)C[C@H]2[C@@H]3CCC4=CC(=O)C=C[C@]4(C)[C@@]3(Cl)[C@@H](O)C[C@@]21C [Beclomethasone dipropionate],inactive: 0.0967

row,SMILES,light-induced TopBP1 condensate (z-score)
1,CCN(CC)Cc1cc(Nc2ccnc3cc(Cl)ccc23)ccc1O [Amodiaquin dihydrochloride dihydrate],inactive: -1.46
2,COCC(=O)O[C@]1(CCN(C)CCCc2nc3ccccc3[nH]2)CCc2cc(F)ccc2[C@@H]1C(C)C [Mibefradil],active: -2.07
3,CN1CCOC(c2ccccc2)c2ccccc2C1 (configuration not stated) [Nefopam hydrochloride],inactive: -0.779
4,CN1CCC(=C2c3ccccc3CCc3sccc32)CC1 [Pizotifen malate],inactive: 1.2
5,"CCN(CC)CCOc1ccc(C(=C(Cl)c2ccccc2)c2ccccc2)cc1 [Clomiphene citrate (Z,E)]",inactive: -0.198
6,CCCCNc1ccc(C(=O)OCCN(C)C)cc1,inactive: -0.604
7,CN(C)[C@@H]1C(O)=C(C(=O)NCNCCCC[C@H](N)C(=O)O)C(=O)[C@@]2(O)C(O)=C3C(=O)c4c(O)cccc4[C@@](C)(O)[C@H]3C[C@@H]12 [Lymecycline],inactive: 0.0668
8,O=C(Cn1cnnn1)N[C@@H]1C(=O)N2C(C(=O)O)=C(CSc3nncs3)CS[C@H]12 [Ceftezole],inactive: -0.707
9,CCCCCOC(=O)Nc1nc(=O)n([C@@H]2O[C@H](C)[C@@H](O)[C@H]2O)cc1F [Capecitabine],inactive: 0.43
10,CCC1NC(=O)c2cc(S(N)(=O)=O)c(Cl)cc2N1 (configuration not stated) [Quinethazone],inactive: -0.46
11,COc1ccccc1N1CCN(CCCCNC(=O)c2ccc3ccccc3c2)CC1,inactive: -1
12,Cc1cnc(C(=O)NCCc2ccc(S(=O)(=O)NC(=O)NC3CCCCC3)cc2)cn1 [Glipizide],inactive: 1.91
13,O=C1[C@H](CC[C@H](O)c2ccc(F)cc2)[C@@H](c2ccc(O)cc2)N1c1ccc(F)cc1 [Ezetimibe],inactive: -0.209
14,OC[C@H]1O[C@@H](c2ccc(Cl)c(Cc3ccc(O[C@H]4CCOC4)cc3)c2)[C@H](O)[C@@H](O)[C@@H]1O [Empagliflozin],inactive: 0.47
15,CN1CCN(c2c(F)cc3c(=O)c(C(=O)O)cn4c3c2SCC4)CC1 [Rufloxacin],inactive: -0.0947
16,COC(=O)C1=C(C)NC(C)=C(C(=O)OCC(C)C)C1c1ccccc1[N+](=O)[O-] (configuration not stated) [Nisoldipine],inactive: 0.901
17,CN(C)CCOC(c1ccc(Cl)cc1)c1ccccn1 (configuration not stated) [Carbinoxamine maleate salt],inactive: 0.304
18,O=C1CCc2ccc(OCCCCN3CCN(c4cccc(Cl)c4Cl)CC3)cc2N1 [Aripiprazole],inactive: 0.241
19,NC(=O)NC1NC(=O)NC1=O (configuration not stated) [Allantoin],inactive: 0.7
20,CNCc1cc(-c2ccccc2F)n(S(=O)(=O)c2cccnc2)c1 [Vonoprazan],inactive: -0.12
21,O=C1C(O)=C([C@H]2CC[C@H](c3ccc(Cl)cc3)CC2)C(=O)c2ccccc21 [Atovaquone],inactive: -0.809
